In PubChem BioAssay AID360 (National Center for Advancing Translational Sciences (NCATS), 2006):
About 550 (1.1%) of roughly 48,000 compounds were called active. Roughly 4% stayed inconclusive and do not appear here. Rule as the data show it: active = potency below about 15 µM; inconclusive = mostly about 16 µM to 33 µM; inactive = weaker than that. The list shows a part of the results.

What follows are molecules tested against Lysosomal acid glucosylceramidase (Homo sapiens) (UniProt P04062) (assay: Glucocerebrosidase). Conditions: purified enzyme, resorufin glucoside fluorescence (screen aimed at inhibitors), 20 min; series mostly up to 77 µM.
Chain of UniProt P04062 (P04062 whole entry, looked up): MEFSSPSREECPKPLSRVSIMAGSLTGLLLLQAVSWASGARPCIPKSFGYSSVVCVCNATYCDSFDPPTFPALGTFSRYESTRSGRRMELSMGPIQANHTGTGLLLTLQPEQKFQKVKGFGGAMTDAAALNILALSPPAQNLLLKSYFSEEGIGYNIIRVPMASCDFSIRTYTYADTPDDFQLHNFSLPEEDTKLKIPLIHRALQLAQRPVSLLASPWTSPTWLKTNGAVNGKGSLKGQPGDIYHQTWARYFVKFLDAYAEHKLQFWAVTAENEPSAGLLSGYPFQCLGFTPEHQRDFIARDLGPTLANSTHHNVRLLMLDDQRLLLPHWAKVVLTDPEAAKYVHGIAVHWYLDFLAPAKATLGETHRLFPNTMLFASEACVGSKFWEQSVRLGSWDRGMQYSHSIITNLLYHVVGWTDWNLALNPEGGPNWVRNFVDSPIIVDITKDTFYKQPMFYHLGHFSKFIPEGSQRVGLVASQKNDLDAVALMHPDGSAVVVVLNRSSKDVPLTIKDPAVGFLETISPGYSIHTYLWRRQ
In short: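 Wild-type enzyme at 0.2 nM final in 50mM citric acid/KH2PO4, 10mM sodium taurocholate, 0.01% tween-20, pH 5.9, with resorufin beta-D-glucopyranoside at 30 uM final. Compounds titrated, 20 min at RT, red fluorescence read; AC50 from titration.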
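Also: the screen sought inhibitors.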
Potency is read from the fitted curve at half-maximal effect.

Potency, inactive:
O=C(Cn1c(=O)n(Cc2ccco2)c(=O)c2cc(Cl)ccc21)NCC1CCCO1 (centres undefined) > 76.9 µM
CCCNC(=O)Cn1cnc2sc(C(=O)NCCN(CC)CC)c(C)c2c1=O > 76.9 µM
COc1ccc(OC)c(S(=O)(=O)Nc2cnc3ccccc3c2)c1 > 76.9 µM
CCCC(CCC)n1[nH]c(=O)c2c(C)cc(C)nc21 > 76.9 µM
CC1CCN(c2nc3ccccc3nc2C(C#N)C(=O)NC2CCCCC2)CC1 (centres undefined) > 76.9 µM
C=CCn1c(SCC(=O)/C(C#N)=C(\C)N)nc2sc(CC)cc2c1=O > 76.9 µM
COc1ccc2c(c1)CCc1c(C(=O)NCc3ccco3)noc1-2 > 76.9 µM
O=C(COc1ccc2ccccc2c1Br)Nn1cnnc1 > 76.9 µM
COCCNC(=O)C(c1ccc(C)o1)N(C(=O)c1snc(C(N)=O)c1N)c1cccc(C)c1 (centres undefined) > 76.9 µM
CCOC(=O)N1CCN(C(=O)CNC(=O)Cc2ccc(Cl)cc2)CC1 > 76.9 µM
CCc1nc2c(cnn2-c2ccc(Cl)cc2)c(=O)n1-c1ccc(OC)cc1 > 76.9 µM
Cc1cccc(-c2c3c(=O)n(C)c(=O)n(C)c3c3cccnn23)c1 > 76.9 µM
CCOC(=O)C1CCN(c2c(NCCCN3CCN(Cc4ccccc4)CC3)c(=O)c2=O)CC1 > 76.9 µM
O=C(O)c1cccc(Cn2cccn2)c1 > 76.9 µM
CC1Cc2cc(C3(O)C(=O)c4ccccc4C3=O)ccc2N1 (centres undefined) > 76.9 µM
CC(=O)OCC(=O)c1ccc2ccn(C(C)=O)c2c1 > 76.9 µM
CCCCn1cnc2c1c(=O)n(C)c(=O)n2C > 76.9 µM
COc1ccc(S(=O)(=O)NCCC(C)C)cc1OC > 76.9 µM
CC(C)C(NS(=O)(=O)c1cccs1)C(=O)N1CCc2ccccc2C1 (centres undefined) > 76.9 µM
CCOC(=O)N1CCN(S(=O)(=O)c2cc(Cl)ccc2Cl)CC1 > 76.9 µM
CCOC(=O)CSc1nnnn1-c1cc(OC)c(Cl)cc1OC > 76.9 µM
CCCCn1c(SCC(=O)Nc2cccc(C)n2)nnc1-c1ccco1 > 76.9 µM
CC1CCN(S(=O)(=O)c2ccc3c(c2)c(=O)c(C(=O)NC2CCCC2)cn3C)CC1 > 76.9 µM
CC(=O)Nc1ccc(S(=O)(=O)N2CCN(CCCOc3cc(C)ccc3C)CC2)cc1 > 76.9 µM
O=C(Cn1cnc2c(cnn2-c2ccccc2)c1=O)N1CCCc2ccccc21 > 76.9 µM
CCCOc1ccc(-c2nnn(CC(=O)c3ccc4c(c3)OCCO4)n2)cc1 > 76.9 µM
CCNC(=O)COc1ccc(Br)cc1Cl > 76.9 µM
Cc1c(NC(=O)CC(O)(C(F)(F)F)C(F)(F)F)c(=O)n(-c2ccccc2)n1C > 76.9 µM
Cc1ccc(N2CC(C(=O)OCC(=O)C(C)(C)C)CC2=O)cc1 (centres undefined) > 76.9 µM
Cc1cccc(-c2noc(CN(C(C)C)S(=O)(=O)c3ccc(F)cc3)n2)c1 > 76.9 µM
CCC(C)NS(=O)(=O)c1ccc(S(=O)(=O)Nc2cc3c(cc2C(C)=O)OCO3)cc1 (centres undefined) > 76.9 µM
CC1CCN(CCCNC(=O)c2ccc(CS(=O)(=O)Cc3ccccc3F)o2)CC1 > 76.9 µM
Cc1ccc(-c2nnc(SCC(=O)N3CCCC3)o2)cc1C > 76.9 µM
COCCn1nnnc1C(c1cccc(C#N)c1)N1CCCCCC1 (centres undefined) > 76.9 µM
Cc1cc(S(=O)(=O)NCc2ccc(S(N)(=O)=O)cc2)c(C)s1 > 76.9 µM
CC1Cc2ccccc2N1C(=O)CSCC(=O)O (centres undefined) > 76.9 µM
CCOC(=O)C1(c2ccccc2)NC(c2ccc(N(C)C)cc2)C2C(=O)N(C)C(=O)C21 (centres undefined) > 76.9 µM
COCCNC(=O)c1cn(C)c(=O)c2cc(OC)c(OC)cc12 > 76.9 µM
CCCn1nc(C(=O)NCc2ccccn2)c2ccccc2c1=O > 76.9 µM
COc1ccc(C(=O)Nc2oc(-c3ccccc3)c(-c3ccccc3)c2C#N)cc1OC > 76.9 µM
O=C(NCc1ccco1)C(c1ccc(F)cc1)N(CC1CCCO1)C(=O)Cn1nnc2ccccc21 (centres undefined) > 76.9 µM
O=C(CN1C(=O)C2(OCCO2)c2ccccc21)c1ccc(F)cc1 > 76.9 µM
CN(CC(=O)NCCN1CCN(Cc2ccccc2)CC1)S(=O)(=O)c1cccc2nsnc12 > 76.9 µM
COC(=O)c1ccc(CSc2nnc(CNC(=O)c3ccccc3F)o2)o1 > 76.9 µM
CCOC(=O)c1c(N)nn(C(=O)C(C)(C)C)c1-c1ccccc1 > 76.9 µM
C=CCOC(=O)C1=C(C)Nc2nc3ccccc3n2C1c1ccncc1 (centres undefined) > 76.9 µM
COc1ccc(S(=O)(=O)N(C)c2ccc(C(=O)N3CCC(C(N)=O)CC3)cc2)cc1 > 76.9 µM
COc1cc(C2C(C#N)=C(N)Oc3cc(C)oc(=O)c32)ccc1OC(=O)N1CCOCC1 (centres undefined) > 76.9 µM
COC(=O)c1cc(COC(=O)c2ccc3ccccc3n2)oc1C > 76.9 µM
O=C(O)c1cnc2ccccc2n1 > 76.9 µM
O=C(COC(=O)Cc1cn2ccsc2n1)Nc1nc2ccccc2s1 > 76.9 µM
CC1S/C(=C(\C#N)C(=O)NCc2ccco2)N(c2ccc(F)cc2)C1=O (centres undefined) > 76.9 µM
CCOC(=O)Cc1csc(NC(=O)CSc2nnnn2-c2ccc(CC)cc2)n1 > 76.9 µM
CC(=O)Nc1ccccc1NC(=O)CC(C)(C)C > 76.9 µM
CN(C)c1nc2c(c(=O)n(C)c(=O)n2C)n1Cc1ccccc1 > 76.9 µM
CCOC(=O)Cc1[nH]nc2c1C(C1C=CCCC1)C(C#N)=C(N)O2 (centres undefined) > 76.9 µM
CCCCn1c(SCc2cccnc2)nc2c1c(=O)n(C)c(=O)n2C > 76.9 µM
Cc1nn(C)c(C)c1S(=O)(=O)N1CCC(C(=O)NC2CCCCC2)CC1 > 76.9 µM
Cc1cc(NC(=O)CCC(=O)N(c2ccccc2)C(C(=O)NCC2CCCO2)c2cccnc2)no1 (centres undefined) > 76.9 µM
c1ccc(NC2=Nc3ccccc3CS2)cc1 > 76.9 µM
COc1cccc(NC(=O)COc2ccccc2C(N)=O)c1 > 76.9 µM
Cc1ccccc1-c1nc(CN2CCCC(C(=O)NCCCN3CCOCC3)C2)c(C)o1 (centres undefined) > 76.9 µM
Cc1ccc(S(=O)(=O)N2CCN(C(=O)CSc3nc4ccccc4c(=O)[nH]3)CC2)cc1 > 76.9 µM
O=C(CSc1nnnn1C1CCCCC1)NCCc1ccccc1 > 76.9 µM
Cc1cc(NC(c2cccnc2)c2ccc3cccnc3c2O)no1 (centres undefined) > 76.9 µM
CCC(C)NC(=O)CCS(=O)(=O)c1ccc(Br)s1 (centres undefined) > 76.9 µM
CCOc1ccc2nc(N3CCCN(C(=O)Nc4ccccc4C)CC3)c(C#N)cc2c1 > 76.9 µM
CCCC1=C(C(=O)OCC)C(c2ccc(NC(C)=O)cc2)NC(=O)N1 (centres undefined)
Fc1ccccc1OCCCN1CCOCC1 > 76.9 µM
COCCN1C(=O)N(c2cccc(C)c2)C(=O)C1CC(=O)Nc1ccc(F)cc1 (centres undefined) > 76.9 µM
Cc1nn2c(-c3cccc(NC(=O)CSc4nc5ccccc5o4)c3)nnc2c2ccccc12 > 76.9 µM
CC1(C)CC(=O)C=C(Nc2ccc(C(=O)O)cc2)C1 > 76.9 µM
CCOCCCNC(=O)CCNC(=O)c1cc(OC)c(OC)c(OC)c1 > 76.9 µM
CN(c1ccc(Cl)cc1)c1cc(=O)n(C)c2ccccc12 > 76.9 µM
O=C(CCSc1ccccc1)Nc1ccc(S(=O)(=O)N2CCOCC2)cc1 > 76.9 µM
O=C(Nc1nccs1)c1ccc(Br)o1 > 76.9 µM
CCN(CC)C(=O)C1CC(=O)N(c2ccc(F)c(Cl)c2)C1 (centres undefined) > 76.9 µM
Cc1c(NC(=O)CSc2nnc(-c3cccc(Cl)c3)o2)c(=O)n(-c2ccccc2)n1C > 76.9 µM
Cc1cccc(NC(=O)C2CCN(c3nccc(C)n3)CC2)c1 > 76.9 µM
O=C(CCCn1c(=O)[nH]c2cc(Cl)ccc2c1=O)NCCCN1CCCC1=O > 76.9 µM
CCCn1c(=NC(=O)c2ccc3c(c2)OCO3)c(C#N)cc2c(=O)n3cccc(C)c3nc21 > 76.9 µM
CCc1nc(N2CCOCC2)c(C#N)c2c1COC(C)(C)C2 > 76.9 µM
O=C(CCCc1nc(-c2ccccc2Cl)no1)NC1CCCCC1 > 76.9 µM
CCc1c(O)nc(SCC(=O)Nc2ccccc2)n(-c2ccccc2)c1=O > 76.9 µM
CCc1nc(C)cn1S(=O)(=O)c1cc(Br)ccc1OC > 76.9 µM
Cc1cc(C)n(CCn2nc(C)cc2C)n1 > 76.9 µM
Cc1cc(C)c2c(=O)[nH]c(=O)n(Cc3ccccc3)c2n1 > 76.9 µM
Cc1cc(-n2c(=O)c(C#N)cc3c(=O)n4cccc(C)c4nc32)no1 > 76.9 µM
O=C1Cn2c(nc3ccccc32)N1c1ccccc1F > 76.9 µM
